Our source for the self-cleavage values is the RNAGym collection of RNA variant scans (doi:10.7554/elife.90254).

Read counts are not given, so values of variants with three or more changes are uncertain.

Sequences and labels used below:
B1: OR4K15 (parent)
chain: GUUAACGGUCAUAGGCCAUGGAAACUAGGAGCACCAUUUCGCUGCCAGUGAAGAAAUGAACAAAGAAAAUCUGGGCCAGGCAGGCAUCAAAAGAAAUAGUCUUGCGCUCAACCAGAAAGUCUGUAAUCAUUUUAAGGGUA

Variants of B1 are the subject of the series. Kind of series: self-cleavage, relative activity (ratio to wild type); higher = more cleavage; in vitro, sequencing; the parent is a self-cleaving ribozyme.
As to GUUAACGGUCAUAGGCCAUGGGAACUAGGAGCACCAUUUCGCUGCCAGUGAAGAAGUGAACAAAGAAAAUCUGGGCCAGGCGGGCAUCAAAAGAAAUAGUCUUGCGCUCAACCAGAAAGUCUGUAAUCAUUUUAAGGGUA, the self-cleavage was found to be 0.56.

Consider GUUAACGGUCAUAGGCCAUGGGAACUAGGAGCACCAUUUCGCUGCCAGUGAAGAGAUGAACAAAGAAAAUCUGGGCCAGGCAGGCAUCAAAAGAAAUAGUCUUGCGCUCAGCCAGAAAGUCUGUAAUCAUUUUAAGGGUA, for which the self-cleavage stood at 0.02.

As for GUUAACGGUCAUAGGCCAUGGGAACUAGGAGCACCAUUUCGCUGCCAGUGAAGAAAUGAACUAAGAAAAUCUGGGCCAGGCAGGCAUCAAAAGAAAUAGUCUCGCGCUCAACCAGAAAGUCUGUAAUCAUUUUAAGGGUA, the self-cleavage is 0.83.

In the case of GUUAACGGUCAUAGGCCAUGGGAACUAGGAGCACCAUUUCGCUGCCAGUGAAGAAGUGACCAAAGAAAAUCUGGGCCUGGCAGGCAUCAAAAGAAAUAGUCUUGCGCUCUACCAGAAAGUCUGUAAUCAUUUUAAGGGUA, the self-cleavage was 0.16.

In the case of GUUAACGGUCAUAGGCCAUGGGAACUAGGAGCACCAUUUCGCUGCCAGUGAAGAAAUGAACGAAGAAAAUCUGGGCCAGGCAGGCAUCAAAAGAAAUAGCCCUGCGCUCAACCAGAAUGUCUGUAAUCAUUUUAAGGGUA, the self-cleavage was found to be 0.5.

Regarding GUUAACGGUCAUAGGCCAUGGGAACUAGGAGCACCAUUUCGCUGCCAGUGAAGAAAUGAACAAAGAAGACCUGGGCCAGGCAGGCAUCAAGAGGAAUAGUCUUGCGCUCAACCAGAAGGUCUGUGAUCACUUUAAGGGUA, the self-cleavage was 0.

As for GUUAACGGUCAUAGGCCAUGGGAACUAGGAGCACCAUUUCGCUGCCAGUGAAGAAAUGGACAAAGAAAAUCUGGGCCUGGCAGGCAUCAAAAGAAAUAGUCUUGCGCUCAACCAGAAAGUCUGUAAUCAUUUUAAGGGUA, the self-cleavage stood at 0.24.

In the case of GUUAACGGUCAUAGGCCAUGGGAACUAGGAGCACCAUUUCGCUGCCAGUGAAGAAAUGAGCAAAGAAAAUCUGGGCCAGGCAGGCAUCAAAAGGAAUAGUCUUGCGCUCAACCAGAAAGUCUGUAAUCAUUUUAAGGGUA, the self-cleavage stood at 1.18.

Take GUUAACGGUCAUAGGCCAUGGGAACUAGGAGCACCAUUUCGCUGCCAGUGAAGAAAUGAGCAAAGAAAGUCUGGGCCAGGCAGGCAUCAAAAGAAAUAGUCUCGCGCUCAACCAGAAAGUCUGUAAUCAUUUUAAGGGUA: the self-cleavage was 0.24.

Consider GUUAACGGUCAUAGGCCAUGGGAACUAGGAGCACCAUUUCGCUGCCAGUGAAGAAAUGAGCAAAGAAAAUCUGGGCCAGGCAGGCAUCAAAAGAAAUGGUCUUGCGCUCAACCAGAGAGUCAGUAACCAUUUUAAGGGUG, for which the self-cleavage came out at 0.19.

Consider GUUAACGGUCAUAGGCCAUGGGAACUAGGAGCACCAUUUCGCUGCCAGUGAAGAAAUGAACAAAGAGAAUCUGGGCCUGGCAGGCAUCAAAAGAAAUAGUCUUGCGCUCGACCAGAAAGUCUGUAAUCACUUUAAGGGUA, for which the self-cleavage turned out to be 0.02.

For GUUAACGGUCAUAGGCCAUGGGAACUAGGAGCACCAUUUCGCUGCCAGUGAAGAAAUGUACAAAGAACAUCUGGGCCAGGCAGGCAUCAAAAGAAAUAGUCUUGCGCUCAACCAGAAAGUCUGUAAUCAUUUUAAGGGUA, the self-cleavage amounted to 1.24.

Regarding GUUAACGGUCAUAGGCCAUGGGAACUAGGAGCACCAUUUCGCUGCCAGUGAAGAAAUGAACAAAGGAAAUCUGGGCCAGGCAGGCAUCAGAAGAAAUAGUCUUGCGCUCAACCAGAAAGUCUGUAAUCAUUUUAAGGGUA, the self-cleavage amounted to 1.14.

On to GUUAACGGUCAUAGGCCAUGGGAACUAGGAGCACCAUUUCGCUGCCAGUGAAGAAAUGAACGAAGAAAAUCUGGGCCAGGCAGGCAUCAAAGGAAAUAGUCUUGCGCUCGACCAGAAAGUCUGUAAUCAUUUUAAGGGUA, for which the self-cleavage was 0.15.

For GUUAACGGUCAUAGGCCAUGGGAACUAGGAGCACCAUUUCGCUGCCAGUGAAGAAAUGAACAGAGAAAAUCUGGGCUAGGCAGGCAUCAAAAGAAAUAGUCUUGCGCUCAACCAGAAAGUCUGUAAUCAUUUUAAGGGUA, the self-cleavage is 1.85.

For GUUAACGGUCAUAGGCCAUGGGAACUAGGAGCACCAUUUCGCUGCCAGUGAAGAAAUGGACAAAGGAAAUCUGGGCCAGGCAGGCAUCAAAAGAAAUAGUCUUGCGCUCAACCAGAAAGUCUGUAAUCAUUUUAAGGGUA, the self-cleavage worked out at 1.42.

Turning to GUUAACGGUCAUAGGCCAUGGGAACUAGGAGCACCAUUUCGCUGCCAGUGAAGAAAUGAACGAAGAAGAUCUGGGCCAGGCAGGCAUCAAAAGAAAUAGUCUCGCGCUCAACCAGAAAGUCUGUAAUCACUUUAAGGGUA, the self-cleavage was determined as 0.63.

With GUUAACGGUCAUAGGCCAUGGGAACUAGGAGCACCAUUUCGCUGCCAGUGAAGAGAUGAACAAAGAAAAUCUGGGCCAGGCAGGCAUCAAAAGAAGUAGUCUUGCGCUCAACCAGAAAGUCUGCAAUCAUUUUAAGGGUA, the self-cleavage stood at 1.02.

For the variant GUUAACGGUCAUAGGCCAUGGGAACUAGGAGCACCAUUUCGCUGCCAGUGAAGAAAUGAACAGUGAAAAUCUGGGCCAGGCAGGCAUCAAAAGAAAUAGUCUUGCGCUCAACCAGAAAGUCUGUAAUCAUUUUAAGGGUA, the self-cleavage is 0.73.

With GUUAACGGUCAUAGGCCAUGGGAACUAGGAGCACCAUUUCGCUGCCAGUGAAGAAAUGAACAAAGGAAAUCUGGGCCGGGCAGGCAACAAAAGAAAUAGUCUUGCGCUCAACCAGAAAGUCUGCAAUCAUUUUAAGGGUA, the self-cleavage was found to be 0.07.

For GUUAACGGUCAUAGGCCAUGGGAACUAGGAGCACCAUUUCGCUGCCAGUGAAGAAAUGGACAAAGAAAAUCUGGGCCAGGCAGGCAUCAAAAGAAAUAGUCUUGCGCUCAACCAGAAAGUCUGUAAUCCUUUUAAGGGUA, the self-cleavage is 2.23.

Consider GUUAACGGUCAUAGGCCAUGGGAACUAGGAGCACCAUUUCGCUGCCAGUGAAGAAAUGAACAGAGAAAAUCUGGGCCAGGCAGGCAUCAAAAGAAAUAGUCUUGCGCUCAACCAGAAAGUCUGUAAUCAUUUAAAGGGUA, for which the self-cleavage is 1.38.

GUUAACGGUCAUAGGCCAUGGGAACUAGGAGCACCAUUUCGCUGCCAGUGAAGAAAUGUACAAAGAAAAUCUGGGCCAGGCAGGCAUCAAAAGAAGUAGUCUUGCGCUCAACCAGAAAGUCUGUAAUCAUUUCAAGGGUA: the self-cleavage came to 0.45.

On to GUUAACGGUCAUAGGCCAUGGGAACUAGGAGCACCAUUUCGCUGCCAGUGAAGAAAUGAACAAAGAAGAUCUGGGCCUGGCAGGCAUCAAAAGAAAUAGUCUUGCGCUCAACCAGAAAGUCUGUUAUCAUUUUAAGGGUA, for which the self-cleavage came to 0.17.

For GUUAACGGUCAUAGGCCAUGGGAACUAGGAGCACCAUUUCGCUGCCAGUGAAGAAAUGAACAAAGAAAGUCUGGGCCAGGCAGGCAUCAAAAGAAAUAGUCUUGCGCUCAACCUGGAAGUCUGUAAUCAUUUUAAGGGUA, the self-cleavage is 0.02.

As to GUUAACGGUCAUAGGCCAUGGGAACUAGGAGCACCAUUUCGCUGCCAGUGAAGAAAUGGACAAAGGAAACCUGGCCCAGGCAGGCAUCAAAAGAAAUAGUCUUGCGCUCAACCAGAAGGUCUGUAAUCAUUUUAAGGGUA, the self-cleavage was 0.11.

Take GUUAACGGUCAUAGGCCAUGGGAACUAGGAGCACCAUUUCGCUGCCAGUGAAGAAAUGAACAAGGAAAAUCUGGGCCAGGCAGGCUUCAAAAGAAAUAGUCUUGCGCUCAACCAGAAAGUCUGCAAUCACUUUAAGGGUA: the self-cleavage turned out to be 0.85.

Consider GUUAACGGUCAUAGGCCAUGGGAACUAGGAGCACCAUUUCGCUGCCAGUGAAGAAAUGAACAACGAAAAUCUGGGCCAGGCAGGCAUCAAAAGGGAUAGUCUUGCGCUCAACCAGAAAGUCUGUAAUCAUUUUAAGGGUA, for which the self-cleavage stood at 1.44.

As to GUUAACGGUCAUAGGCCAUGGGAACUAGGAGCACCAUUUCGCUGCCAGUGAAGAAAUGAGCAAAGAAAAUCUGGGCCAGGCAGGCAUCAAAAGAAAUAGUCUUGCGCUCAACCAGAAAGUCUGUAAUCUUUUUAAGGGUA, the self-cleavage was 0.17.

For the variant GUUAACGGUCAUAGGCCAUGGGAACUAGGAGCACCAUUUCGCUGCCAGUGAAGAAAUGAGCGAAGAAAAUCUGGGCCUGGCAGGCAUCAAAAGAAAUAGUCUUGCGCUCGACCAGAAAGUCUGUAAUCAUUUUAAGGGUA, the self-cleavage was 0.11.

As to GUUAACGGUCAUAGGCCAUGGGAACUAGGAGCACCAUUUCGCUGCCAGUGAAGAAAUGAACAAGGAAAAUCUGGGCCAGGCAGGCAUCAAAAGAAAUAGUCUUGCGCUCAACCAGAAAGUCGGUAAUCAUUUUAAGGGUA, the self-cleavage turned out to be 1.08.

Regarding GUUAACGGUCAUAGGCCAUGGGAACUAGGAGCACCAUUUCGCUGCCAGUGAAGAAAUGAACAAAGAAGAUCUGGGCCAGGCAGGCAUCAAAAGAAAUAGUCUUGCGCUCAACCAGAAAGUCUGUAAUCAUUCUAAGUGUA, the self-cleavage is 1.96.

As for GUUAACGGUCAUAGGCCAUGGGAACUAGGAGCACCAUUUCGCUGCCAGUGAAGAAAUGAACAAAGAAAGUCUGGGCCAGGCAGGCAUCAAAAGAAAUAGUCUUGCGCUCAACCAGAAGGUCUGUAAUCAUUUUAAGGGUA, the self-cleavage was determined as 0.59.

GUUAACGGUCAUAGGCCAUGGGAACUAGGAGCACCAUUUCGCUGCCAGUGAAGAAAUGAACAAAGAAAUUCUGGGCCAGGCAGGCACCAAAAGAAAUAGUCUUGCGCUCAACCAGAAAGUCUGUAAUCAUUUUAAGGGUA: the self-cleavage stood at 0.81.

GUUAACGGUCAUAGGCCAUGGGAACUAGGAGCACCAUUUCGCUGCCAGUGAAGAAAUGGACGAAGAAAAUCUGGGCCAGGCAGGCAUCAAAAGAAAUAGUCUUGCGCUCAACCAGAAAGUCUGUAAUCAUUUUAAGGGUA: the self-cleavage worked out at 0.4.

Take GUUAACGGUCAUAGGCCAUGGGAACUAGGAGCACCAUUUCGCUGCCAGUGAAGAAAUGGACAAAGAAAAUCUGGGCCAGGCAGGCAACAAAAGAAAUAGUCUUGCGCUCAACCAGAAAGUCUGUAAUCAUUUUAAGGGUA: the self-cleavage was determined as 1.77.

Consider GUUAACGGUCAUAGGCCAUGGGAACUAGGAGCACCAUUUCGCUGCCAGUGAAGAAAUGAACAAAGAAAGCCUGGGCCAGGCAGGCUUCAAAAGAAAUAGUCUUGCGCUCAACCAGAAAGUCUGUAAUCAUUCUAAGGGUA, for which the self-cleavage stood at 0.18.

Turning to GUUAACGGUCAUAGGCCAUGGGAACUAGGAGCACCAUUUCGCUGCCAGUGAAGAAAUGAACGAAGAAAAUCUGGGCCAGGCAGGCAUCAAAAGGAAUAGCCUUGCGCUCAACCAGAAGGUCUGUAAUCAUUUUAAGGGUA, the self-cleavage turned out to be 1.87.

As to GUUAACGGUCAUAGGCCAUGGGAACUAGGAGCACCAUUUCGCUGCCAGUGAAGAAAUGAACUAAGAAAAUCUGGGCCAGGCAGGCAUCAAAAGGAAUAGUCUUGCGCUCAACCAGAAAGUCCGUAAUCAUUUUAAGGGUA, the self-cleavage was determined as 1.41.

Turning to GUUAACGGUCAUAGGCCAUGGGAACUAGGAGCACCAUUUCGCUGCCAGUGAAGAAAUGAACAAAGAAAGUCUGGGCCAGGCAGGCAUCAAAAGAAAUAGUCUUGCGCUCAACCAGAAAGUCUGUAAUCAUUUCAAGGGUA, the self-cleavage amounted to 2.12.

Regarding GUUAACGGUCAUAGGCCAUGGGAACUAGGAGCACCAUUUCGCUGCCAGUGAAGAAAUGAACAGAGAAAGUCUGGGCCAGGCAGGCAUCAAAAGAAAUAGUCUUGCGCUCAACCAGAAGGUCUGUAAUCAUUUUAAGGGUA, the self-cleavage worked out at 1.09.
